The record followed here is PubChem BioAssay AID485344 (National Center for Advancing Translational Sciences (NCATS), 2010).

In general, inhibition refers to the relative decrease from the control value, in per cent.

The structures appear in SMILES notation. Out of some 340,000 compounds screened, about 6,900 (2%) were called active. Rule as the data show it: active = inhibition above about 30%; inactive = below that, where a call was filed. This is a selection; strong and weak results do not stand in their true shares. Entries without a call were filed so in the source.

For the experiment, the target named is D(2) dopamine receptor (Homo sapiens) (UniProt P14416). Nature of the experiment: HTS Assay for Allosteric Antagonists of the Human D2 Dopamine Receptor: Primary Screen for Antagonists. Also: 0% is about no effect. The settings on record: HEK293 TREx D2 cells, calcium flux, dopamine EC80; at 10 µM; stronger effect = higher value. The method in brief: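 Overnight-induced (tetracycline, 30 C) HEK293 T-REx cells carrying force-coupled D2 receive a no-wash calcium dye, then compound, then EC80 dopamine at 180 s; signals are read kinetically throughout.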
UniProt P14416, sequence (P14416 whole entry, looked up): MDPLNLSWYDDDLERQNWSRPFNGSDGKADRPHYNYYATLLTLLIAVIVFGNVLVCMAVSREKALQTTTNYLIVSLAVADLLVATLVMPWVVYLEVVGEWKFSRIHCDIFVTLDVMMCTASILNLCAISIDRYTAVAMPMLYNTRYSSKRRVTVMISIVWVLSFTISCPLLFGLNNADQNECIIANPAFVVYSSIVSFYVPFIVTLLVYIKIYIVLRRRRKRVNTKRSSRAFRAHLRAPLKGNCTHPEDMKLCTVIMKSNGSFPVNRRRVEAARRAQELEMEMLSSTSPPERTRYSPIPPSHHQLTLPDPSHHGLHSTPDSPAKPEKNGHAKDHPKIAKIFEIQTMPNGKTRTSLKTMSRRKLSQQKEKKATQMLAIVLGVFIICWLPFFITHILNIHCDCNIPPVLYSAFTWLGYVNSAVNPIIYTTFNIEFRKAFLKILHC
As for `Cc1cccc(C)c1NC(=O)CCS(=O)(=O)c1cccc2nonc12`, the inhibition is -8.32%.

Turning to `CCCOc1cccc(C(=O)Nc2ccc(-c3cc4ccccc4oc3=O)c(C)c2)c1`, the inhibition came to 1.34%.

Turning to `CCOc1ccccc1NC(=O)c1cc2c(=O)n(Cc3cccnc3)ccc2nc1C`, the inhibition is 6.5%.

Consider `CCOC(=O)c1ccc(NC2=CC(c3ccc(F)cc3)N(c3ccc(C(=O)OCC)cc3)C2=O)cc1` (stereo unspecified), for which the inhibition amounted to 10.4%.

In the case of `Cc1ccccc1Cn1c(SCc2ccc(C(=O)NC3CCCC3)cc2)nc2ccncc21`, the inhibition was 2.01%.

As for `CC(=O)Nc1ccc(Nc2ncnc3c2c(-c2ccccc2)cn3-c2ccc(C)c(Cl)c2)cc1`, the inhibition came to 5.37%.

Consider `CCOC(=O)c1c(C)[nH]c(C)c1S(=O)(=O)N1CCC(C(=O)Nc2ccc(C)c(Cl)c2)CC1`, for which the inhibition was 5.35%.

`Cc1ccc(NC(=O)C2CCCN(c3cnccn3)C2)c(C)c1` (stereo unspecified): the inhibition was -6.08%.

As to `CCc1ccc(-c2nc(CSCC(=O)N3CCN(c4ccc(F)cc4)CC3)c(C)o2)cc1`, the inhibition was 13.7%.

As for `CCc1ccccc1NC(=O)c1cc2c(Cl)nc3ccccc3c2s1`, the inhibition was -21%.

As to `CCOC(=O)c1cc(-c2ccccc2)n(-c2cccc(C(=O)N(C)c3ccc(C)cc3)c2)c1C`, the inhibition is -16.3%.

Turning to `Fc1ccc(N2CCN(Cc3cccn3-c3nnc(N4CCN(C5CCCCC5)CC4)s3)CC2)cc1`, the inhibition was -4.9%.

`CCOc1ccccc1CNC(=O)c1ccc(Cn2c(SCc3ccccc3)nc3cccnc32)cc1`: the inhibition turned out to be 7.88%.

`Cc1cc(C)c2nc(NC(=O)c3ccc(S(=O)(=O)N4CCC(C)CC4)cc3)sc2c1`: the inhibition was -2.76%.

`CC(C)OC(=O)/C(C#N)=C/c1ccc(-c2ccc(Cl)c(Cl)c2)o1`: the inhibition is 3.78%.

As to `COc1ccc(CCNC(=O)CCCn2c(SCC(N)=O)nc3cc4c(cc3c2=O)OCO4)cc1OC`, the inhibition was -15.1%.

For `COc1ccc(CNC(=O)C2=C(C)C(=O)OC23CCN(C(C)=O)CC3)cc1`, the inhibition is -2.43%.

As to `CCCCOc1ccccc1C(=O)Nc1onc2c1CCCC2`, the inhibition is -1.59%.

Regarding `CC1CCN(c2oc(-c3ccc(COc4ccc(Cl)cc4)o3)nc2C#N)CC1`, the inhibition is 8.71%.

Turning to `CSc1ccc(CNC(=O)CCc2c(C)nn(-c3ccc(N4CCCC4)nn3)c2C)cc1`, the inhibition is 7.03%.

Regarding `COc1cccc(-c2nc3c(c(SCC(=O)Nc4cc(C)ccc4C)n2)Cc2c(CO)cnc(C)c2O3)c1`, the inhibition was found to be 4.14%.

Turning to `CC(C)OCCCNC(=O)CSc1c2c(nc3ccc(Cl)cc13)CCCC2`, the inhibition was 13.8%.

Take `Cc1cccn2c(=O)cc(COc3cccc(NC(=O)COc4ccccc4)c3)nc12`: the inhibition came out at 1.32%.

`Cc1nc(-n2nc(C)c(CCC(C)C)c2C)sc1C(=O)Nc1ccc(Br)cc1`: the inhibition was determined as 3.2%.

As for `CC(=O)c1ccc(NC(=O)CSc2nc(C3CCCC3)nc3c2c(=O)n(C)c(=O)n3C)cc1`, the inhibition was -6.26%.

Consider `CCOC(=O)c1ccc(NC(=O)CC2C(=O)N(c3ccc(F)cc3)C(=O)N2Cc2ccc(C)cc2)cc1` (stereo unspecified), for which the inhibition was found to be 14.4%.

`COc1ccc(Nc2cc(C(=O)NCCCN(C)Cc3ccccc3)c3ccccc3n2)cc1`: the inhibition is -0.0378%.

As for `CCOc1cc(C2Sc3ccccc3NC3=C2C(=O)c2ccccc23)ccc1O` (stereo unspecified), the inhibition is 0.466%.

Turning to `COc1ccc(C(=O)Nc2ccccc2-c2nc3ccccc3s2)c(OC)c1`, the inhibition is -17.2%.

For the compound `CCOC(=O)c1cnc2ccc(Cl)cc2c1Nc1ccc(OCC)cc1`, the inhibition was 15.5%.

In the case of `CCc1ccc2ncc3c(-c4ccc(C)cc4)nn(CC(=O)Nc4ccc(C)cc4)c3c2c1`, the inhibition was -1.55%.

As for `COc1ccc(Oc2nc3c(C)cccn3c(=O)c2/C=C(\C#N)c2nc3ccccc3[nH]2)cc1`, the inhibition turned out to be 5.6%.

On to `COc1ccc(NC(=O)C/C(C)=N/NC(=O)CCc2ccccc2)c(OC)c1`, for which the inhibition is active: 39.9%.

Regarding `Cc1cc(C)c(NC(=O)Cn2c(=O)n(-c3ccc(F)cc3)c(=O)c3c(C)c(C(=O)N(C)C)sc32)c(C)c1`, the inhibition was 12.9%.

Regarding `COC(=O)c1cc2occc2n1Cc1nc(-c2cccc(Br)c2)oc1C`, the inhibition is 8.34%.

`COc1ccc(C(=O)c2sc(Nc3cc(Cl)ccc3C)nc2N)cc1OC`: the inhibition came out at 9.24%.

With `Cc1cc(C)cc(C(=O)OCC(=O)N2CCCCCC2)c1`, the inhibition is active: 41.8%.

Turning to `Cc1nc2nc(SCC(=O)N(Cc3ccccc3)C(C)C)nn2c(C)c1Cc1ccccc1Cl`, the inhibition came to 2.06%.

Turning to `Cc1cc(C)c2sc(N3CCN(C(=O)C4CC4)CC3)nc2c1`, the inhibition is -18.1%.

As to `CSc1ccc(CCNc2ncnc3onc(-c4ccc(Cl)cc4)c23)cc1`, the inhibition was -5.98%.

With `Cc1ccc(C)c(CN2CCCNC2=O)c1`, the inhibition was active: 30.8%.

`COc1ccc(CNC(=O)CCc2c(C)c3cc4c(C)coc4cc3oc2=O)cc1`: the inhibition was 21.3%.

As for `COc1ccc(CNC(=O)c2nc(S(=O)(=O)Cc3ccccc3)ncc2Cl)cc1`, the inhibition is 0.226%.

With `COc1ccccc1NC(=O)Nc1nc(C(C)(C)C)cs1`, the inhibition was active: 34.6%.

Turning to `Cc1ccc(-n2nc3c(=O)n(CC(=O)NCc4ccco4)nc(C)c3c2C)cc1`, the inhibition was -3.49%.

Turning to `CCOc1ccc(N2CC(O)(c3ccc(F)cc3)[N+]3=C2CCCC3)cc1` (stereo unspecified), the inhibition was active: 30.4%.

On to `O=C(Nc1ccc2nc3n(c(=O)c2c1)CCCCC3)C(=O)N1CCN(c2ccc(F)cc2)CC1`, for which the inhibition was active: 34.3%.

With `CCOC(=O)N1CCN(Cc2nc3cc(NC(=O)c4ccccc4OC)ccc3n2C(C)C)CC1`, the inhibition was -9.71%.

In the case of `Cc1ccccc1CNCCSc1nnnn1-c1ccccc1`, the inhibition amounted to 1.9%.

For the compound `Cc1ccc(-n2c(=O)c3ccc(C(=O)NCc4ccco4)cc3n(Cc3ccc(Cl)cc3)c2=O)cc1`, the inhibition is 27.1%.

For `Cn1c(=O)n(CCCOc2ccc(Br)cc2)c2ccccc21`, the inhibition is active: 32.4%.

`Cc1ccc2c(c1)N(CC(=O)NCCCN1CCCCC1C)C(=O)c1cccnc1O2` (stereo unspecified): the inhibition is -13.8%.

Regarding `Cc1ccc2c(c1)N(S(=O)(=O)c1ccc3c(c1)NC(=O)CC(=O)N3)CCO2`, the inhibition is -0.89%.

In the case of `COc1ccc(-n2c(=O)c3ccc(C(=O)NCc4ccc(C)cc4)cc3n(Cc3ccc(C)cc3)c2=O)cc1`, the inhibition was 1.88%.

On to `COc1cc2nc(NCc3ccccc3)n3nc(-c4ccccc4)nc3c2cc1OC`, for which the inhibition worked out at 1.42%.

Regarding `CCOC(=O)Cc1ccc(NC(=O)N2CC(C)Oc3ccc(Cl)cc32)cc1` (stereo unspecified), the inhibition was -4.01%.

As to `COc1ccc2c(c1)cc1c(=O)n(CC(=O)NCCc3ccccc3)nc(C)n12`, the inhibition came to 24.6%.

Consider `COC(=O)c1ccccc1NC(=O)c1ccc2c(Cl)c3c(nc2c1)CCCC3`, for which the inhibition was found to be 6.86%.

As for `Cc1nc2ccn(Cc3cccs3)c(=O)c2cc1C(=O)N1CCN(c2ccccc2)CC1`, the inhibition was found to be 3.59%.

As for `O=C(Nc1cccc(Br)c1)c1cc(-c2ccc3c(c2)OCCO3)on1`, the inhibition was -0.724%.

Consider `COc1cc2[nH]c(=O)n(CCCCCC(=O)N3CCN(c4ccc(Cl)cc4)CC3)c(=O)c2cc1OC`, for which the inhibition stood at 7.42%.

`O=C(CSc1cn(CC(=O)N2CCCC2)c2ccccc12)Nc1ccccc1C(F)(F)F`: the inhibition is -4.98%.

Turning to `Cc1cccc(Cn2c(=O)n(CC3CCC(C(=O)N4CCC(C)CC4)CC3)c(=O)c3sccc32)c1` (stereo unspecified), the inhibition was 8.84%.

On to `OCCN1CCN(CC/C=C2/c3ccccc3Sc3ccc(Cl)cc32)CC1`, for which the inhibition is active: 73%.

`Cc1nc2cc(-c3ccccc3)nn2c(C)c1CCC(=O)NCc1cccc(Cl)c1`: the inhibition is 26.9%.

For `CCOCCCNc1nc2cc(OC)c(OC)cc2c2nc(-c3ccccc3)nn12`, the inhibition is 8.04%.

On to `CCOC(=O)c1scc(-c2ccc(C)cc2)c1S(=O)(=O)Nc1ccc(OC)c(Cl)c1`, for which the inhibition was -15.3%.

On to `Cc1cccc(NS(=O)(=O)c2ccc3nc(-c4ccccc4)[nH]c3c2)c1C`, for which the inhibition was determined as 21.1%.

With `Cc1ccc(NC(=O)Cn2c(=O)n(CCC(=O)NCc3ccccc3Cl)c(=O)c3ccccc32)c(C)c1`, the inhibition is 1.68%.

Turning to `Clc1ccccc1Nc1ncnc2c1nc1n2CCCCC1`, the inhibition was 8.5%.

For the compound `O=C(Nc1ccc2nc(SCCOc3ccccc3)sc2c1)c1ccc2c(c1)OCO2`, the inhibition is -20.4%.

In the case of `Cc1ccc(-n2cnc3cc(C(=O)NCc4ccccc4Cl)ccc32)c(C)c1`, the inhibition was 17.1%.

In the case of `Cc1ccc2nc(N3CCN(c4ccccc4F)CC3)c3nnnn3c2c1`, the inhibition was found to be 3.43%.

Take `Cc1nc(-n2nc(C)c(Cc3ccc4c(c3)OCO4)c2C)sc1C(=O)Nc1ccc(Cl)cc1`: the inhibition was -1.74%.

Consider `CCCOc1cccc(C2c3c(oc4ccc(F)cc4c3=O)C(=O)N2Cc2ccc3c(c2)OCO3)c1` (stereo unspecified), for which the inhibition was -5.39%.

As to `Cc1cccc(Cn2cccc2CNS(=O)(=O)c2ccc(C)c(C)c2)c1`, the inhibition turned out to be 11.2%.

On to `O=C(c1ccco1)n1nc(-c2ccc(Cl)cc2)nc1NCc1ccc(F)cc1`, for which the inhibition is -7.43%.

For `CN1CCSc2ccc(C(=O)NCc3ccccc3)cc21`, the inhibition is -7.57%.

Take `CCCCN(Cc1ccco1)C(=O)Cn1ncc2c([nH]c3ccccc32)c1=O`: the inhibition is -6.56%.

Consider `CCc1ccccc1NC(=O)C1CCCN(c2cnccn2)C1` (stereo unspecified), for which the inhibition came out at 5.57%.

Take `CN1/C(=C\C(=O)c2cccnc2)C(C)(C)c2ccccc21`: the inhibition is active: 32.3%.

For `Cc1ccc(NC(=O)CSc2nc(=O)cc(N)n2CCc2ccccc2)cc1`, the inhibition came out at 1.73%.

`O=C(Nc1cccc(NC(=O)c2ccccc2Cl)c1)c1cccc(Br)c1`: the inhibition was -3.7%.

Take `COc1ccc(C(CNC(=O)COc2cc(C)cc(C)c2)N2CCOCC2)cc1` (stereo unspecified): the inhibition is -0.298%.

Turning to `CC(Sc1oc(-c2cccs2)nc1S(=O)(=O)c1ccccc1)c1ccccc1` (stereo unspecified), the inhibition is -3.54%.

Regarding `Cn1nccc1C(=O)NCc1ccc2c(c1)CCN2C(=O)c1ccc(Cl)cc1`, the inhibition was found to be 14.5%.

In the case of `Cc1c(C(=O)Nc2ccc(F)cc2F)sc2nc3n(c(=O)c12)N=C(c1ccccc1)CS3`, the inhibition was -3.83%.

Regarding `CCCCOc1ccc(Cn2c(=O)sc3ccccc32)cc1`, the inhibition was -8.95%.

For `COc1ccc(N2CCN(c3csc4ccccc4c3=O)CC2)cc1`, the inhibition was -2%.

`CCc1ccc(NC(=O)c2nn(-c3ccc(OC)cc3)c(=O)c3c2c2ccccc2n3C)cc1`: the inhibition is -9.8%.

Take `CCc1ccc(Oc2c(C(F)(F)F)oc3c(CN4CCCC(C)C4)c(O)ccc3c2=O)cc1` (stereo unspecified): the inhibition turned out to be 3.72%.

Consider `CC(CNC(=O)CCS(=O)(=O)c1cc2c(cc1Cl)NC(=O)CO2)c1ccccc1` (stereo unspecified), for which the inhibition turned out to be 3.38%.

For `CCOC(=O)c1ccccc1NC(=O)CCc1nc(-c2ccc(C)cc2)no1`, the inhibition is 17.3%.

As to `Cc1ccc(NC(=O)C2CCN(S(=O)(=O)c3cc(-c4noc(C)n4)ccc3C)CC2)c(C)c1`, the inhibition was -24%.

As for `COc1cccc(-n2c(=O)c3sc4ccccc4c3n(CC(=O)Nc3ccccc3C)c2=O)c1`, the inhibition is -0.789%.

For `CCCN(CCC)CCCNC(=O)c1cc2c(=O)[nH]c3ccccc3c2n1C`, the inhibition worked out at 2.45%.
